Data: PubChem BioAssay (Tox21)
Where “and” joins values, the source holds several entries; their conditions need not be identical. Equal entries are not always repeated. The shares of active, inactive and inconclusive entries below differ from those in the screen. Potencies beside an inconclusive call are fits to weak or partial responses and may not hold up. Some compounds were tested as several samples or in several runs, with calls that do not always agree. Calls of active or inactive are those of the source. The call rests on the fitted dose curve; in most records, active means well fitted curve in the direction sought with a large enough effect in the repeat runs; inconclusive means weak or mixed curves; inactive means no such curve, though single readings can be large; an effect the other way counts as inactive or inconclusive.

The compounds below were run against Cytochrome P450 1A2 (Homo sapiens) (UniProt P05177) (assay: Cytochrome P450 Family 1 Subfamily A Member 2 (CYP1A2) small molecule antagonists: luciferase reporter qHTS assay (AID 1671199)). Settings: P450-Glo CYP1A2 enzyme, luciferin luminescence, 1 h; series mostly up to 115 µM.
UniProt P05177, sequence (P05177 whole entry, looked up): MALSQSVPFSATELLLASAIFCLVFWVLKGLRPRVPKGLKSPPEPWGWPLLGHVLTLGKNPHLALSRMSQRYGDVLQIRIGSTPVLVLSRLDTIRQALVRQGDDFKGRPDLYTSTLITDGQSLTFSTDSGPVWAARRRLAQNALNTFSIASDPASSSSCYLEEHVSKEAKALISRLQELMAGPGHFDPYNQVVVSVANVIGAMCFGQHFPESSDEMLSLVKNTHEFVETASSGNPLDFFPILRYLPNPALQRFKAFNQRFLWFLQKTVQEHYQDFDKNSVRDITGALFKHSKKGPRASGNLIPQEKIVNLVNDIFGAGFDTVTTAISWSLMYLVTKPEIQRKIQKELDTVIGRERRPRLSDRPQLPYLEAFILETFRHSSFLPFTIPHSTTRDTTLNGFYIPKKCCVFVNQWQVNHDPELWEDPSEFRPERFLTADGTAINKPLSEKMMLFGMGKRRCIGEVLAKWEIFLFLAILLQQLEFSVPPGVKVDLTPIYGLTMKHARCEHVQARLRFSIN
How it was run: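 Quantitative high-throughput format using the P450-Glo CYP1A2 system. Reaction initiated by NADPH regeneration solution, 1 h at room temperature, then stopped with detection reagent; luminescence measured 20 min later.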
Further: nearly all actives have a fitted effect of over 50% in size.
Potency means the concentration at half of the fitted maximal effect; tags describe the fitted curve by direction and shape.

SMILES | Potency
CCCC(=O)C(=O)O | inconclusive: 71 µM [inhibitor, partial curve, poor fit]
O=C(NOCC1CC1)c1ccc(F)c(F)c1Nc1ccc(I)cc1Cl | active: 15.5 µM
C=CC1CO1 (stereo unspecified) | inconclusive: 83.4 µM [inhibitor, partial curve, poor fit]
CCCCCCCCCCCCCCC | inactive
NC(=NCCCCCCN=C(N)/N=C(\N)Nc1ccc(Cl)cc1)/N=C(\N)Nc1ccc(Cl)cc1 | inconclusive: 88.8 µM [inhibitor, single point]
CC1(C)S[C@@H]2[C@H](NC(=O)C(c3ccccc3)S(=O)(=O)O)C(=O)N2[C@H]1C(=O)O (stereo partly specified) | inconclusive: 24.5 µM [inhibitor, partial curve]
CCO[Si](CCCNC(N)=O)(OCC)OCC | inconclusive: 39.9 µM [inhibitor, partial curve]
O=c1oc(=O)c2cc3c(=O)oc(=O)c3cc12 | inconclusive: 44.8 µM [inhibitor, partial curve]

What follows are compounds tested against Voltage-gated inwardly rectifying potassium channel KCNH2 (Homo sapiens) (UniProt Q12809) (assay: Human Ether-a-go-go-Related Gene (hERG) channel small molecule antagonists: fluorescence cell-based qHTS assay (AID 1671200)). Settings: hERG-U2OS cells, FluxOR thallium flux fluorescence; series mostly up to 76.8 µM.
UniProt Q12809, sequence (Q12809 whole entry, looked up): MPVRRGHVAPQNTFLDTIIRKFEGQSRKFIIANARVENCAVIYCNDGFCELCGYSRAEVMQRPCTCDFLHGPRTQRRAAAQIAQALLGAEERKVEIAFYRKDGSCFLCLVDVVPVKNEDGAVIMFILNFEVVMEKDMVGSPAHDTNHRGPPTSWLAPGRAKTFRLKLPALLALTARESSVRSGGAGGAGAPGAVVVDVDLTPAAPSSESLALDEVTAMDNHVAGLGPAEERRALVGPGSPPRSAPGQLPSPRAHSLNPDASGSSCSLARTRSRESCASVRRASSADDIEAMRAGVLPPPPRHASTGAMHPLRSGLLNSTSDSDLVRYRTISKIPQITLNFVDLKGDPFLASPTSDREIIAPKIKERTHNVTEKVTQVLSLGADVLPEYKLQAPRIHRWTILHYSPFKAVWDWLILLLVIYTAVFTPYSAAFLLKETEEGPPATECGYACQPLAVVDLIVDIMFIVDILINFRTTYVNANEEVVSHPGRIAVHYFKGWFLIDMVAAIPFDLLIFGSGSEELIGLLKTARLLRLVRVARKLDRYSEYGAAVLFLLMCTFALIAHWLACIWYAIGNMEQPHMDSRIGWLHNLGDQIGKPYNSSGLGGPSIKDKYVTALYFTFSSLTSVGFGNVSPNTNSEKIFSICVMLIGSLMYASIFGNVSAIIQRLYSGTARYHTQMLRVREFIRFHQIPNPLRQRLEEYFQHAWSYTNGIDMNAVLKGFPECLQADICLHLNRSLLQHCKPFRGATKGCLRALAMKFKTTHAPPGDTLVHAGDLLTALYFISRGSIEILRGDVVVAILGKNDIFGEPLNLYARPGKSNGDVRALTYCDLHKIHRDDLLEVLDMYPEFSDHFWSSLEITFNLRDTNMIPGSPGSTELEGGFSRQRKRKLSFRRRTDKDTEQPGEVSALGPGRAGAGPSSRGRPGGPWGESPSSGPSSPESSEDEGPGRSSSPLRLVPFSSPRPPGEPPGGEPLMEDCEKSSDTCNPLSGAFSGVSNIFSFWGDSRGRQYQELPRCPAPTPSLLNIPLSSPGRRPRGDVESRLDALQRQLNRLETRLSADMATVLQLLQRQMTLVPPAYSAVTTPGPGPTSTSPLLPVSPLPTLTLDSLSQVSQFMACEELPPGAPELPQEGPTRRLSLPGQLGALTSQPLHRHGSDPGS
How it was run: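 Quantitative HTS in hERG-U2OS cells: thallium entry through the channel reports activity, read as continuous 480/540 nm fluorescence over 2 min after stimulus addition.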

SMILES | Potency
NS(=O)(=O)c1cc(C(=O)O)cc(N2CCCC2)c1Oc1ccccc1 | inactive
O=C(O)Cn1cnnn1 | inactive
CN1CCCC1=O | inactive
COc1ncnc(NS(=O)(=O)c2ccc(N)cc2)c1OC | inactive
Cc1ccc(OC(=O)c2ccccc2O)cc1 | inconclusive: 1.1 µM [inhibitor, single point]
Cc1cc2c(OCC(CNC(C)(C)C)OC(=O)c3ccccc3)cccc2[nH]1 (stereo unspecified) | inconclusive: 21.3 µM [inhibitor, partial curve]
CN(C/C=C/C#CC(C)(C)C)Cc1cccc2ccccc12 | inconclusive: 12 µM [inhibitor, partial curve]
CCC1CO1 (stereo unspecified) | inactive
Cc1ccc(CO)cc1 | inactive
CCOC(=O)/C=C/C(=O)OCC | inactive
Clc1nc2ccccc2nc1Cl | inactive
CC(=O)OCC(C)OC(C)=O (stereo unspecified) | inactive
O=C(Nc1cccc(Cl)c1)OCC#CCCl | inconclusive: 54.9 µM [inhibitor, single point]
CCCCCCCCCCCCCCC | inactive
NC(=NCCCCCCN=C(N)/N=C(\N)Nc1ccc(Cl)cc1)/N=C(\N)Nc1ccc(Cl)cc1 | inconclusive: 34.5 µM [inhibitor, partial curve]
CC(COCC(C)OC(=O)c1ccccc1)OC(=O)c1ccccc1 (stereo unspecified) | inconclusive: 48.6 µM [inhibitor, partial curve] and inconclusive: 38.9 µM [inhibitor, partial curve, poor fit]
Cc1ccsc1/C=C/C1=NCCCN1C | inconclusive: 16.9 µM [inhibitor, partial curve, poor fit]
CCCCCCCC/C=C\CCCCCCCC(=O)OCCOC(=O)CCCCCCC/C=C\CCCCCCCC | inconclusive: 57 µM [inhibitor, partial curve, poor fit]

The compounds below were run against Cytochrome P450 3A4 (Homo sapiens) (UniProt P08684) (assay: Cytochrome P450 Family 3 Subfamily A Member 4 (CYP3A4) small molecule antagonists: luciferase reporter qHTS assay (AID 1671201)). Settings: P450-Glo CYP3A4 enzyme, luciferin luminescence, 1 h; series mostly up to 115 µM.
UniProt P08684, sequence (P08684 whole entry, looked up): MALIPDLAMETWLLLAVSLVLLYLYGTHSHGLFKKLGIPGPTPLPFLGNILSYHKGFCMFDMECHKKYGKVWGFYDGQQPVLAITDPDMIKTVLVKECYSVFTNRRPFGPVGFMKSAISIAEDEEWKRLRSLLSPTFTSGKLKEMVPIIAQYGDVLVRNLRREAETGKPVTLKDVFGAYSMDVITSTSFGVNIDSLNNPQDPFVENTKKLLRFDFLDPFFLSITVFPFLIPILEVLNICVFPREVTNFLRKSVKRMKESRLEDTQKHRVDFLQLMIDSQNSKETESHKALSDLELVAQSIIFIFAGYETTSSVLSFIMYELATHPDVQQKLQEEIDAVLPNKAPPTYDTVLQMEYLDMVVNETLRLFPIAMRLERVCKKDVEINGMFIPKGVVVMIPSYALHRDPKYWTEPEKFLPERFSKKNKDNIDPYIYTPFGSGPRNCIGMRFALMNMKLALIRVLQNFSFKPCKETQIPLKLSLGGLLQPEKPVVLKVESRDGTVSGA
How it was run: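 Inhibition of CYP3A4 is measured as loss of light: the enzyme converts a proluciferin substrate to luciferin, detected luminescently. Reaction ran 1 h at room temperature with NADPH regeneration after a 10 min compound preincubation.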

SMILES | Potency
Oc1ccc2c(c1)OCO2 | active: 22.3 µM
Cc1ccccc1S(N)(=O)=O | inactive
CCCCCCCCCC(=O)N(C)C | inconclusive: 64.2 µM [inhibitor, partial curve]
CCCCCCCC(=O)[O-].CCCCCCCC(=O)[O-].[Zn+2] | inactive
Nc1c(Cl)cc(Cl)cc1Cl | inconclusive: 69.9 µM [inhibitor, partial curve]
COc1cc2[nH]c(=O)[nH]c(=O)c2cc1OC | inactive
COC(=O)CS | inactive
CCCCC(CC)COP(=O)(O)O (stereo unspecified) | inactive
O=C(Nc1cccc(Cl)c1)OCC#CCCl | active: 7.1 µM
CCN(C(=O)N(CC)c1ccccc1)c1ccccc1 | inconclusive: 28.3 µM [inhibitor, full curve, poor fit]
